This is one part of the list. Many values rest on one well or one pass, so single values are uncertain.
The compounds below were run on WM115 (assay: cell count relative to DMSO control; melanoma cells; higher = more viable cells). Details: library dose: low library concentration; 72 h.
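Note: cell number obtained by counting DAPI-stained nuclei in high-throughput microscope images with image analysis software, screen run in 1,536-well plates.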

SMILES | cell count [%]
O=C(O)c1ccc2c(c1)nc(Nc1cccc(Cl)c1)c1ccncc12 + CC(C)CCN1c2nc(Nc3cc(F)c(O)c(F)c3)ncc2N(C)C(=O)C1C [BID1870] (first compound 0.4 µM, partner dose 0.2 µM) | 88.3
O=C(Nc1cc(C(F)(F)F)cc(C(F)(F)F)c1)c1cc(Cl)ccc1O + CCCCCCCCCCCCCCCCCCOP(=O)([O-])OC1CC[N+](C)(C)CC1 [Perifosine] (first compound 0.016 µM, partner dose 0.4 µM) | 95.1
O=C(O)c1ccc2c(c1)nc(Nc1cccc(Cl)c1)c1ccncc12 + C=C(c1ccc(C(=O)O)cc1)c1cc2c(cc1C)C(C)(C)CCC2(C)C [Bexarotene] (first compound 0.4 µM, partner dose 2 µM) | 97.9
O=C(O)c1ccc2c(c1)nc(Nc1cccc(Cl)c1)c1ccncc12 + N#Cc1c(O)c2c(-c3ccc(-c4ccccc4O)cc3)csc2[nH]c1=O [A769662] (first compound 0.4 µM, partner dose 2 µM) | 93.6
O=C(Nc1cc(C(F)(F)F)cc(C(F)(F)F)c1)c1cc(Cl)ccc1O + O=c1[nH]nc(Sc2ncc([N+](=O)[O-])s2)n1-c1ccc2c(c1)OCCO2 [BI78D3] (first compound 0.016 µM, partner dose 0.2 µM) | 101
O=C(O)[C@@H]1[O][Sb](=[O])([O][Sb]2(=[O])[O][C@H]([C@H](O)CO)[C@H](O)[C@H](C(=O)O)[O]2)[O][C@H]([C@H](O)CO)[C@@H]1O (stereo partly drawn) [stibogluconate] + COc1cc2ncnc(Nc3ccc(Oc4ccccc4)cc3)c2cc1OC [SrcI1] (first compound 2 µM, partner dose 2 µM) | 110
O=C(O)[C@@H]1[O][Sb](=[O])([O][Sb]2(=[O])[O][C@H]([C@H](O)CO)[C@H](O)[C@H](C(=O)O)[O]2)[O][C@H]([C@H](O)CO)[C@@H]1O (stereo partly drawn) [stibogluconate] + CCCS(=O)(=O)Nc1ccc(F)c(C(=O)c2c[nH]c3ncc(Cl)cc23)c1F [PLX4720] (first compound 2 µM, partner dose 0.08 µM) | 97.2
O=C(Nc1cc(C(F)(F)F)cc(C(F)(F)F)c1)c1cc(Cl)ccc1O + COc1ccc(C2=N[C@@H](c3ccc(Cl)cc3)[C@@H](c3ccc(Cl)cc3)N2C(=O)N2CCNC(=O)C2)c(OC(C)C)c1 [Nutlin-3] (first compound 0.016 µM, partner dose 0.1 µM) | 104
O=C(O)[C@@H]1[O][Sb](=[O])([O][Sb]2(=[O])[O][C@H]([C@H](O)CO)[C@H](O)[C@H](C(=O)O)[O]2)[O][C@H]([C@H](O)CO)[C@@H]1O (stereo partly drawn) [stibogluconate] + CCN(CC)CCCCNc1ncc2cc(-c3cc(OC)cc(OC)c3)c(NC(=O)NC(C)(C)C)nc2n1 [PD173074] (first compound 2 µM, partner dose 0.1 µM) | 114
Cc1cc(N2CCOCC2)cc2[nH]c(-c3c(NC[C@@H](O)c4cccc(Cl)c4)cc[nH]c3=O)nc12 + CC(C)CCN1c2nc(Nc3cc(F)c(O)c(F)c3)ncc2N(C)C(=O)C1C [BID1870] (first compound 0.2 µM, partner dose 0.2 µM) | 110
O=C(Nc1cc(C(F)(F)F)cc(C(F)(F)F)c1)c1cc(Cl)ccc1O + CC(C)(C)c1cnc(CSc2cnc(NC(=O)C3CCNCC3)s2)o1 [SNS-032] (first compound 0.016 µM, partner dose 0.01 µM) | 104
O=C(O)[C@@H]1[O][Sb](=[O])([O][Sb]2(=[O])[O][C@H]([C@H](O)CO)[C@H](O)[C@H](C(=O)O)[O]2)[O][C@H]([C@H](O)CO)[C@@H]1O (stereo partly drawn) [stibogluconate] + Cn1c(Nc2ccc(C(F)(F)F)cc2)nc2cc(Oc3ccnc(-c4ncc(C(F)(F)F)[nH]4)c3)ccc21 [CHIR265] (first compound 2 µM, partner dose 0.08 µM) | 58.8
O=C(Nc1cc(C(F)(F)F)cc(C(F)(F)F)c1)c1cc(Cl)ccc1O + COc1cc2ncnc(Nc3ccc(Oc4ccccc4)cc3)c2cc1OC [SrcI1] (first compound 0.016 µM, partner dose 2 µM) | 106

— the supplement of paper PMC4604168 (melanoma cell lines)
